Laboratory results from patent US20120184488A1 (CASE WESTERN RESERVE UNIVERSITY, published 2012).

Legend:
[1] = molecular target: T1, Type I insulin-like growth factor receptor; assay: competitive displacement, antibody-capture microtiter plate, IGFR
T1 construct: also called IGFR; IGF Type I receptor
Protocol: Microtiter strip plates (Nunc Maxisorb) were incubated overnight at 4° C. with AU5 IgG (100 μl/well of 40 mg/ml in phosphate-buffered saline). Binding data were analyzed by a two-site sequential model. A corresponding microtiter plate antibody assay using the IGF Type I receptor was employed to assess cross-binding to this homologous receptor.

[2] = molecular target: T1, Type I insulin-like growth factor …; assay: receptor-binding assay, IGFR
[3] = molecular target: T2, Human Insulin Receptor Isoform A (human); assay: receptor-binding assay, HIRA
T2 construct: also called HIRA

[4] = molecular target: T1, Type I insulin-like growth factor …; assay: receptor-binding assay, IGFR; remark: listed apart in the source

Binder | relative affinity for IGFR (percent of IGF-I) [1] [%] | fold reduction of affinity in comparison to HI [2] [fold] | Kd [3] [nM] | Kd [4] [nM]
insulin glargine (Lantus) (ligand, also called [Gly^A21, Arg^B31, Arg^B32]-insulin) chain 1: not shown chain 2: not shown | 0.92 | – | – | –
His^A4-His^A8-His^B1-insulin (ligand, also called His^B1-His^A4-His^A8-ins) chain 1: not shown chain 2: not shown | 0.05 | – | – | –
[His^A4, His^A8]-KP insulin (ligand, also called HisA4, A8 KP-ins) chain 1: not shown chain 2: not shown | – | > 4 | 0.016 | 65.3
